The source gives no read counts; variants with many changes may rest on few reads.

Sequences and labels used below:
B1: LINE1-full (parent)
chain: UACGUAGGUGGUUUUCCCCUGAUAGUGCUAAGGGGGCCUGGAAGUUUGGACUGGGCAGAGCUCAACACAGCGUGGCAAAGUGGCUGUGGCUAGACUGCCUCUCUGGAUUCCUCGUCACUCAGCAGGGCAUCUCUGAGAGAAAUGCC

In the series the parent is B1. Briefly: self-cleavage, relative activity (ratio to wild type); higher = more cleavage; in vitro, sequencing; the parent is a self-cleaving ribozyme.
With UACGUAGGUGGUUUUCCCCUGAUGGUGCUAAGGGGGCCUGGAAGUUUGGACUGGGCAGAGCUCAACUCAGCGUGGCAAAGUGGCUGUGGCUAGACUGCCUCUCAGGAUUCCUCGUCACUCAGCAGGGCAUCUCUGAGAGAAAUGCC, the self-cleavage worked out at 0.2.

As to UACGUAGGUGGUUUUCCCCUGAUGGUGCUAAGGGGGCCUGGAGGUUUGGACUGGGCAGAGCUCAACACAGCGUGGCAAAGUGGCUGUGGCUAGACCGCCUCUCUGGAUUCCUCGUCACUCAGCAGGGCAUAUCUGAGAGAAAUGCC, the self-cleavage came to 0.43. With UACGUAGGUGGUUUUCCCCUGAUGGUGCUAAGGGGGCCUGGAAGUUUGGACUGGGCAGAGCUCAACACAGCGUGGCAAAGUGGCUGUGGCUAGGCUGCCUCUCUGGAUUCCUCGUCACUCAGCAGGGCAUCUCUGGGGGAAAUGCC the figure was 0.71; with UACGUAGGUGGUUUUCCCCUGAGGGUGCUAAGGGGGCCUGGAAGUUUGGACUGGGCAGAGCCCAACACAGCGUGGCAAAGUGGCUGUGGCUAGACUGCCUCACUGGAUUCCUCGUCACUCAGCAGGGCAUCUCUGAGAGAAAUGCC, 0; with UACGUAGGUGGUUUUCCCCUGAGAGUGCUAAGGGGGCCUGGAAGUUUGGACUGGGCAGAGCUCAACACAGCGCGGCAAAGUGGCUGUGGCUAGACUGCCUCUCUGGAUUCCUCGUCACUCAGCAGGGCAUCUCUGGGAGAAAUGCC, 0.8.

With UACGUAGGUGGUUUUCCCCUGAUGGUGCUAAGGGGGCCUGGAAGUUUGGACUGGGCGGAGCUCAACGCAGCGUGGCAAAGUGGCUGUGGCUAGACUGCCUCUCUGGAUUCCUCGUCACUCAGCAGGGCAUCUCUGAGAGAAAUGCC, the self-cleavage stood at 0.

On to UACGUAGGUGGUUUUCCCCUGAUGGUGCUGAGGGGGCCUGGAAGUUUGGACAGGGCAGAGCUCAACACAGCGUGGCAAAGUGGCUGUGGCUAGACUGCCUCUCUGGAUUCCUCGUCACUCAGCAGGGCAUCUCUGAGAGAAGUGCC, for which the self-cleavage turned out to be 1.76. With UACGUAGGUGGUUUUCCCCUGAGAGUGCUAAGGGGGCCUGGAAGUUUGGACUGGGCAGAGCUCAACACAGCGUGGCAAAGUGGCUGUGGCUAGACUGCUUCUCUGGAUACCUCGCCACUCAGCAGGGCAUCUCUGAGAGAGAUGCC the figure was 0.6.

Consider UACGUAGGUGGUUUUCCCCUGAUGGUGCUAAGGGGGCCUGGAAGUUUGGACUGGGCAGAGCUCAACACAGCGUGGCACAGUGGCCGUGGCUAGACUGCCUCUCUGGAUUCCUCGUCACUCAGCAGGGCAUCUCUGAGAGAAAUGCC, for which the self-cleavage is 0. In the case of UACGUAGGUGGUUUUCCCCUGAGAGUGCUAAGGGGGCCUGGAAGUCUGGACAGGGCAGAGCUCAACACAGCGUGGCAAAGUGGCUGUGGCUAGACUGCCUCUCUGGAAUCCUCGUCACUCAGCAGGGCAUCUCUGGGGGAAAUGCC it was 1.93. With UACGUAGGUGGUUUUCCCCUGAUGGUGCUAAGGGGGCCUGGAAGUUUGGACUGGGCAGAGCUCAACACAGCGUGGCAAAGUGGCUGUGGCUUGACUGCCUCUCUGGAUUCCUCGUCACACAGCAGGGCAUCUCUGAGAGAAAUGCC the figure was 0.53; with UACGUAGGUGGUUUUCCCCUGACAGUGCUAAGGGGGCCUGGAAGUUUGGACUGGGCAGAGCUCAACACAGCGUGGCAAAGUGGCUGUGGCUAGACUGCCUCUCUGGAUUCCUCGUCACUCAGCAGGGCAUCUCCGAGGGAAAUGCU, 1.44.

Consider UACGUAGGUGGUUUUCCCCUGAUGGUGCUAAGGGGGCCUGGAAGUUUGGACUGGGCUGAGCUCAACACAGCAUGGCAAAGUGGCUGUGGCUAGACUGCCUCUCUGGAUUCCUCGUCACUCAGCAGGGCAUCUCUGAGAGAAAUGCC, for which the self-cleavage is 0.24. In the case of UACGUAGGUGGUUUUCCCCUGAUGGUGCUAAGGGGGCCUGGAGGUUUGGAUUGGGCAGAGCUCAACGCAGCGUGGCAAAGUGACUGUGGCUAGACUGCCUCUCUGGAUUCCUCGUCACUCAGCAGGGCAUCUCUGGGAGAAAUGCC it was 0.3.

UACGUAGGUGGUUUUCCCCUGAUGGUGCUAAGGGGGCCUGGAAGUUUGGACUGGGCGGAGCUCAACACAGCGUAGCAAAGUGGCUGUGGCUAGACUGCCUCUCUGGAUUCCUCGUCACUCAGCAGGGCAUCCCUGAGAGAAAUGCC: the self-cleavage worked out at 1.08.

As to UACGUAGGUGGUUUUCCCCUGAUGGUGCUAAGGGGGCCUGGAAGUUUGGACUGGGCAGAGCUCAGCACAGCGUGGCAAAGUGGCUGUGGCUAGACUGCCUCUCCGGAUUCCUCGUCACUCAGCAGGGCAUCUCUGAGAGAAAUGCC, the self-cleavage was found to be 0. In the case of UACGUAGGUGGUUUUCCCCUGAUGGUGCUAAGGGGGCCUGGAAGUUUGGACUGGGCAGAGCUCAACACAGCGUGGCGAAGUGGCUGUGGCUAGACUGCCUCUCUGGAUUCCUCGUCACUCAGCAGGGCAUCUCUGAGAGGAAUGCC it was 1.08; in that of UACGUAGGUGGUUUUCCCCUGAUGGUGCUUAGGGGGCCUGGAAGUUUGUACUGGGCAGAGCUCAACACAGCGUGGCAAAGUGGCUGUGGCUAGACUGCCUCUCUGGAUUCCUCGUCACUCAGCAGGGCAUCUCUGGGAGAGAUGCC, 1.41.

UACGUAGGUGGUUUUCCCCUGAUCGUGCUAAGGGGGCCUGGAAGUUUGGACUGGGCAGAGCUCAACACAGCGUGGCAAAGUGGCUGUGGGUAGACUGCCUCUCUGGAUUCCUCGUCACUCAGCAGGGCAUCACUGAGAGAAAUGCC: the self-cleavage turned out to be 0.09.
